Structures can show the parent of a compound that is named as a salt. Some of the results follow. The data scatter; read single values as rough.
Columns and labels:
Experiment in all cases: ALDHbr (CSC) cell proportion score relative to DMSO vehicle (ratio to DMSO); breast (SUM159) / gastric (MKN45) / pancreatic (PANC1) / colon cancer lines; ALDHbr cells have high ALDH activity and are rich in cancer stem cells (CSC); higher = more CSC (ALDHbr) cells remaining
Conditions in all cases: 10 µM; 72 h
MKN45 = test system: MKN45
PANC1 = test system: PANC1
SUM159 = test system: SUM159
T84 = test system: T84
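Further: High-content imaging of ALDEFLUOR-stained cells with Hoechst-labelled nuclei in 384-well plates, triplicate wells, scored as Z-score against 0.1% DMSO vehicle, negative meaning fewer ALDHbr cells.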

Row | SMILES | ALDHbr (MKN45) | ALDHbr (PANC1) | ALDHbr (SUM159) | ALDHbr (T84)
1 | COCCCOc1ccnc(C[S+]([O-])c2nc3ccccc3[nH]2)c1C (stereo unspecified) [Rabeprazole Sodium salt] | 0.772 | 0.997 | 1.29 | 0.752
2 | COc1ccccc1Oc1c(NS(=O)(=O)c2ccc(C(C)(C)C)cc2)nc(-c2ncccn2)nc1OCCO [Bosentan] | 0.778 | 0.964 | 0.428 | 1.07
3 | O=C(O)CCC(=O)Nc1ccc(S(=O)(=O)Nc2nccs2)cc1 [Succinylsulfathiazole] | 1.25 | 0.928 | 1.09 | 0.889
4 | C[C@@H]1C[C@H]2[C@@H]3C[C@H](F)C4=CC(=O)C=C[C@]4(C)[C@@]3(F)[C@@H](O)C[C@]2(C)[C@@]1(O)C(=O)CO [Flumethasone] | 0.959 | 0.656 | 1.24 | 0.979
5 | COc1ccc(C(=O)NCc2ccc(OCCN(C)C)cc2)cc1OC [Itopride] | 0.94 | 0.878 | 1.18 | 0.956
6 | NC[C@H]1O[C@H](O[C@H]2[C@H](O)[C@@H](O[C@H]3O[C@H](CO)[C@@H](O)[C@H](N)[C@H]3O)[C@H](N)C[C@@H]2N)[C@H](N)C[C@@H]1O [Tobramycin] | 0.929 | 0.995 | 0.993 | 0.937
7 | CC(Oc1ccccc1)C(=O)N[C@@H]1C(=O)N2[C@@H]1SC(C)(C)[C@@H]2C(=O)O (stereo partly specified) [Phenethicillin potassium salt] | 0.965 | 0.934 | 1.04 | 1.27
8 | COc1ccccc1O [Guaiacol] | 1.03 | 0.956 | 0.878 | 0.93
9 | CNCCCC12CCC(c3ccccc31)c1ccccc12 [Maprotiline hydrochloride] | 1.03 | 1.13 | 0.598 | 0.457
10 | CCCCOc1ccc(C(=O)CCN2CCCCC2)cc1 [Dyclonine hydrochloride] | 0.726 | 0.555 | 0.421 | 0.716
11 | COc1c(N2CCNC(C)C2)c(F)cc2c(=O)c(C(=O)O)cn(C3CC3)c12 (stereo unspecified) [Gatifloxacin] | 1.43 | 1.02 | 0.826 | 1.08
12 | Clc1ccc(C(Cn2ccnc2)OCc2csc3c(Cl)cccc23)c(Cl)c1 (stereo unspecified) [Sertaconazole nitrate] | 1.28 | 1.71 | 1.03 | 0.565
13 | CO[C@@H]1[C@@H](OC(N)=O)[C@@H](O)[C@H](Oc2ccc3c(O)c(NC(=O)c4ccc(O)c(CC=C(C)C)c4)c(=O)oc3c2C)OC1(C)C [Novobiocin sodium salt] | 0.955 | 0.89 | 0.827 | 0.883
14 | CCCOc1ccc(C(=O)OCCN(CC)CC)cc1N [Proparacaine hydrochloride] | 0.753 | 0.74 | 1.01 | 0.837
15 | NC(CO)C(=O)NNCc1ccc(O)c(O)c1O (stereo unspecified) [Benserazide hydrochloride] | 0.851 | 0.869 | 1.08 | 0.878
16 | CC1c2cccc(O)c2C(O)=C2C(=O)C3(O)C(O)=C(C(N)=O)C(=O)C(N(C)C)C3C(O)C21 (stereo unspecified) [Doxycycline hydrochloride] | 0.987 | 0.631 | 1.16 | 0.961
17 | CN(C)CCCN1c2ccccc2Sc2ccc(Cl)cc21 [Chlorpromazine hydrochloride] | 0.833 | 1.16 | 0.64 | 0.58
18 | C[C@]1(Cn2ccnn2)[C@H](C(=O)O)N2C(=O)C[C@H]2S1(=O)=O [Tazobactam] | 1.01 | 0.923 | 1.04 | 0.859
19 | NC(=O)N/N=C/c1ccc([N+](=O)[O-])o1 [Nitrofural] | 0.547 | 0.714 | 0.66 | 0.635
20 | CC[C@@H](CO)NCCN[C@@H](CC)CO [Ethambutol dihydrochloride] | 0.901 | 0.875 | 1.07 | 0.862
21 | CN1CCN(CCCN2c3ccccc3Sc3ccc(Cl)cc32)CC1 [Prochlorperazine dimaleate] | 0.63 | 0.955 | 0.266 | 0.188
22 | Cc1cc(NS(=O)(=O)c2ccc(N)cc2)no1 [Sulfamethoxazole] | 1.06 | 0.867 | 0.811 | 0.992
23 | COc1cc(C(=O)N2CCOCC2)cc(OC)c1OC [Trimetozine] | 1.06 | 0.961 | 0.963 | 1.09
24 | O=c1[nH]c(=O)n([C@H]2C[C@H](O)[C@@H](CO)O2)cc1I [Idoxuridine] | 1.45 | 1.36 | 1.47 | 0.6
25 | COc1ccc(/C=C/C(=O)Nc2ccccc2C(=O)O)cc1OC [Tranilast] | 0.982 | 0.887 | 1.38 | 0.851
26 | CCN(CC)CCOC(=O)C1(c2ccc([N+](=O)[O-])cc2)CCCC1 [Nitrocaramiphen hydrochloride] | 1.04 | 0.932 | 0.597 | 1.01
27 | O=C1OCCN1/N=C/c1ccc([N+](=O)[O-])o1 [Furazolidone] | 0.399 | 0.817 | 0.328 | 0.301

Row | SMILES | ALDHbr (MKN45) | ALDHbr (PANC1) | ALDHbr (SUM159) | ALDHbr (T84)
28 | CC(=O)N[C@@H](CS)C(=O)O [Acetylcysteine] | 1.22 | 0.947 | 0.949 | 0.901
29 | CSc1ccc2c(c1)C(N1CCN(C)CC1)Cc1ccccc1S2 (stereo unspecified) [Methiothepin maleate] | 0.811 | 0.872 | 0.207 | 0.514
30 | CCN(CC)Cc1cc(Nc2ccnc3cc(Cl)ccc23)ccc1O [Amodiaquin dihydrochloride dihydrate] | 1.42 | 1.03 | 0.585 | 0.933
31 | Cc1ccc(N(CC2=NCCN2)c2cccc(O)c2)cc1 [Phentolamine hydrochloride] | 1.23 | 0.962 | 0.902 | 0.941
32 | Nc1cc(-c2ccncc2)c[nH]c1=O [Amrinone] | 0.759 | 0.918 | 1.61 | 1.1
33 | CC(=O)O[C@]1(C(C)=O)CC[C@H]2[C@@H]3C=C(Cl)C4=CC(=O)CC[C@]4(C)[C@H]3CC[C@@]21C [Chlormadinone acetate] | 0.799 | 0.691 | 0.519 | 0.741
34 | CC(C)OC(=O)CCC/C=C\C[C@@H]1[C@@H](CC[C@@H](O)CCc2ccccc2)[C@H](O)C[C@@H]1O [Latanoprost] | 0.84 | 0.808 | 1.23 | 0.916
35 | CN1CCN(c2c(F)cc3c(=O)c(C(=O)O)cn(CCF)c3c2F)CC1 [Fleroxacin] | 1.13 | 0.949 | 1.02 | 0.927
36 | CN[C@H](CC(C)C)C(=O)N[C@H]1C(=O)N[C@@H](CC(N)=O)C(=O)N[C@H]2C(=O)N[C@H]3C(=O)N[C@H](C(=O)N[C@H](C(=O)O)c4cc(O)cc(O)c4-c4cc3ccc4O)[C@H](O)c3ccc(c(Cl)c3)Oc3cc2cc(c3O[C@@H]2O[C@H](CO)[C@@H](O)[C@H](O)[C@H]2O[C@H]2C[C@](C)(N)[C@H](O)[C@H](C)O2)Oc2ccc(cc2Cl)[C@H]1O [Vancomycin hydrochloride] | 1.04 | 0.889 | 0.97 | 0.926
37 | COC(=O)C1=C(C)NC(C)=C(C(=O)OC2CCCN(Cc3ccccc3)C2)C1c1cccc([N+](=O)[O-])c1 (stereo unspecified) [Benidipine hydrochloride] | 0.77 | 1.06 | 0.408 | 0.622
38 | CN(Cc1cc(Br)cc(Br)c1N)C1CCCCC1 [Bromhexine hydrochloride] | 0.86 | 1.03 | 1.04 | 0.88
39 | CCOC(=O)OC(C)OC(=O)[C@@H]1N2C(=O)[C@@H](NC(=O)[C@H](N)c3ccccc3)[C@H]2SC1(C)C (stereo partly specified) [Bacampicillin hydrochloride] | 1.06 | 0.876 | 0.951 | 0.991
40 | COCCCOc1cc(C[C@@H](C[C@H](N)[C@@H](O)C[C@H](C(=O)NCC(C)(C)C(N)=O)C(C)C)C(C)C)ccc1OC [Aliskiren hemifumarate] | 0.911 | 0.741 | 0.945 | 0.932
41 | CN(C)c1nc(N(C)C)nc(N(C)C)n1 [Altretamine] | 1.02 | 1.02 | 1.02 | 0.909
42 | CCN(CC)CCNC(=O)c1cc(Cl)c(N)cc1OC [Metoclopramide monohydrochloride] | 1.05 | 0.952 | 0.872 | 0.997
43 | Cc1ncc([N+](=O)[O-])n1CCO [Metronidazole] | 1.08 | 0.811 | 1.09 | 0.954
44 | COC(=O)Nc1nc2cc([S+]([O-])c3ccccc3)ccc2[nH]1 (stereo unspecified) [Oxfendazol] | 1.55 | 1.15 | 0.988 | 0.781
45 | CCN(CC)CCNC(=O)c1cc(Br)c(N)cc1OC [Bromopride] | 1.09 | 0.874 | 1.03 | 0.888
46 | CC1(C)S[C@@H]2[C@H](NC(=O)[C@H](N)c3ccc(O)cc3)C(=O)N2[C@H]1C(=O)O [Amoxicillin] | 0.945 | 0.906 | 1.14 | 1.05
47 | NS(=O)(=O)Cc1noc2ccccc12 [Zonisamide] | 1.07 | 0.875 | 0.935 | 1.01
48 | O=C(O)c1cn(-c2ccc(F)cc2)c2cc(N3CCNCC3)c(F)cc2c1=O [Sarafloxacin] | 0.936 | 0.881 | 0.933 | 1.01
49 | CN(C)CCc1c[nH]c2ccc(Cn3cncn3)cc12 [Rizatriptan benzoate] | 1.22 | 0.958 | 0.698 | 0.935
50 | CC(=O)Nc1nnc(S(N)(=O)=O)s1 [Acetazolamide] | 0.921 | 0.868 | 1.09 | 0.871
51 | CC(CN(C)C)C(C)(O)Cc1ccc(Cl)cc1 (stereo unspecified) [Clobutinol hydrochloride] | 1.05 | 0.952 | 0.913 | 1.01
52 | c1coc(CNc2ncnc3nc[nH]c23)c1 [6-Furfurylaminopurine] | 0.931 | 0.878 | 0.945 | 0.924
53 | Cc1c(C)c2c(c(C)c1O)CCC(C)(COc1ccc(CC3SC(=O)NC3=O)cc1)O2 (stereo unspecified) [Troglitazone] | 0.765 | 0.847 | 0.749 | 0.721
54 | CCN(CC)C(C)CN1c2ccccc2Sc2ccccc21 (stereo unspecified) [Ethopropazine hydrochloride] | 0.901 | 1.14 | 0.824 | 0.993

— the supplement of paper PMC11880418
